{"source": "the BET-seq Pho4 binding data (Le et al. 2018)", "note": "Some of the results follow. Values were computed here from the reads of four pooled replicates and scatter widely.", "data": [{"target": "T1, Pho4 (S. cerevisiae) (UniProt P07270)", "T1 sequence": "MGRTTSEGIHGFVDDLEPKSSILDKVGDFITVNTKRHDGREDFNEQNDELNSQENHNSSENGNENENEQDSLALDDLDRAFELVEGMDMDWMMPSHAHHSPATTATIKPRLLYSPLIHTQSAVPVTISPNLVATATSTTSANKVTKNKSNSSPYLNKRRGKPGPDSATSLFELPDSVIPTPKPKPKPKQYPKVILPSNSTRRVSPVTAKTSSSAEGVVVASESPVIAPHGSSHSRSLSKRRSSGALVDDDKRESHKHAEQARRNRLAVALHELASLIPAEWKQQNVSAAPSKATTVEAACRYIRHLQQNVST", "assay": "relative binding free energy (BET-seq); higher = weaker binding", "conditions": "reference: library average", "units": {"relative binding free energy": "kcal/mol"}, "values": [{"sequence": "TTGTTCACGTGCTTTT", "relative binding free energy": 0.34}, {"sequence": "AGTATCACGTGGACTG", "relative binding free energy": 0.24}, {"sequence": "TGCGTCACGTGGTATA", "relative binding free energy": 0.04}, {"sequence": "CAATGCACGTGTTAGG", "relative binding free energy": 0.04}, {"sequence": "TCGGGCACGTGTCTGT", "relative binding free energy": -0.15}, {"sequence": "GTGTCCACGTGCGTGT", "relative binding free energy": -0.04}, {"sequence": "GACATCACGTGGTAGG", "relative binding free energy": 0.2}, {"sequence": "GCGGACACGTGTGTTG", "relative binding free energy": 0.09}, {"sequence": "TTCTTCACGTGTTGAG", "relative binding free energy": 0.34}, {"sequence": "AATCACACGTGTTTTT", "relative binding free energy": 0.06}, {"sequence": "GTCGGCACGTGGCAGA", "relative binding free energy": 0}, {"sequence": "AGTTTCACGTGGGTAA", "relative binding free energy": 0.13}, {"sequence": "TAGATCACGTGGTAGG", "relative binding free energy": 0.05}, {"sequence": "GGACTCACGTGTAGTA", "relative binding free energy": 0.39}, {"sequence": "TGTTGCACGTGCGCGC", "relative binding free energy": -0.09}, {"sequence": "ATTGGCACGTGATTGA", "relative binding free energy": -0.07}, {"sequence": "TGTACCACGTGCTGGT", "relative binding free energy": -0.05}, {"sequence": "ACGTACACGTGTATGT", "relative binding free energy": 0.06}, {"sequence": "GGGTTCACGTGCTGCT", "relative binding free energy": 0.17}, {"sequence": "TTTCTCACGTGATAGT", "relative binding free energy": 0.2}, {"sequence": "GTTAACACGTGCATTT", "relative binding free energy": 0.2}, {"sequence": "TTCGGCACGTGGGGCA", "relative binding free energy": -0.18}, {"sequence": "ATGTGCACGTGATAGA", "relative binding free energy": 0}, {"sequence": "CTTTACACGTGGAATT", "relative binding free energy": 0.3}, {"sequence": "GCAAGCACGTGGAGGT", "relative binding free energy": -0.08}, {"sequence": "TCTGGCACGTGATAGT", "relative binding free energy": -0.12}, {"sequence": "TTTCTCACGTGACGTT", "relative binding free energy": 0.32}, {"sequence": "GGGGTCACGTGGTGGT", "relative binding free energy": 0.16}, {"sequence": "TGGGTCACGTGTTGGC", "relative binding free energy": 0.3}, {"sequence": "TATATCACGTGAGAGG", "relative binding free energy": 0.42}, {"sequence": "CTTGGCACGTGTGTAG", "relative binding free energy": -0.13}, {"sequence": "GAGGCCACGTGATTGT", "relative binding free energy": 0.29}, {"sequence": "TCTAACACGTGTTGGG", "relative binding free energy": 0.01}, {"sequence": "AGGCACACGTGTGTTT", "relative binding free energy": 0.07}, {"sequence": "TATCGCACGTGTGGGT", "relative binding free energy": 0.04}, {"sequence": "CATTACACGTGTCGTT", "relative binding free energy": 0.27}, {"sequence": "GTATACACGTGTGGAG", "relative binding free energy": 0.14}, {"sequence": "TTTGTCACGTGCGATA", "relative binding free energy": 0.19}, {"sequence": "TTAGGCACGTGTGGAT", "relative binding free energy": 0.02}, {"sequence": "GACGGCACGTGGACGG", "relative binding free energy": 0.08}, {"sequence": "AGCCTCACGTGTATGG", "relative binding free energy": 0.3}, {"sequence": "AATGGCACGTGTGTCG", "relative binding free energy": -0.18}, {"sequence": "TAGTGCACGTGGGTGC", "relative binding free energy": -0.15}, {"sequence": "GGTCTCACGTGAGGAG", "relative binding free energy": 0.31}, {"sequence": "GTTAACACGTGTTGTT", "relative binding free energy": 0.08}, {"sequence": "TTTTTCACGTGGAATG", "relative binding free energy": 0.2}, {"sequence": "GAGTTCACGTGTGGGC", "relative binding free energy": 0.49}, {"sequence": "ATTTTCACGTGAAGCT", "relative binding free energy": 0.53}, {"sequence": "AGCGTCACGTGTGCGG", "relative binding free energy": 0}, {"sequence": "CATGACACGTGGTAGG", "relative binding free energy": -0.04}, {"sequence": "GCGGGCACGTGGCTTG", "relative binding free energy": -0.25}, {"sequence": "TTTTTCACGTGTCCGT", "relative binding free energy": 0.15}, {"sequence": "GGAGGCACGTGATCTG", "relative binding free energy": -0.03}, {"sequence": "TGGAACACGTGTGATG", "relative binding free energy": 0.02}, {"sequence": "GATAGCACGTGAAAGT", "relative binding free energy": 0.37}, {"sequence": "CTGAGCACGTGGGCTG", "relative binding free energy": -0.27}, {"sequence": "TATTGCACGTGCGGAG", "relative binding free energy": -0.1}, {"sequence": "GGGAGCACGTGGGACT", "relative binding free energy": -0.09}, {"sequence": "GGGTGCACGTGTTGTT", "relative binding free energy": 0.03}, {"sequence": "TTTTACACGTGAAAAG", "relative binding free energy": 0.35}, {"sequence": "CGGGTCACGTGTTGGA", "relative binding free energy": 0.21}, {"sequence": "TGGAGCACGTGTCAGT", "relative binding free energy": -0.08}, {"sequence": "TAATGCACGTGTAATA", "relative binding free energy": 0.06}, {"sequence": "GGGATCACGTGACGGG", "relative binding free energy": 0.24}, {"sequence": "GATTACACGTGTTCGG", "relative binding free energy": 0.12}, {"sequence": "TAAAGCACGTGCGGTG", "relative binding free energy": -0.07}, {"sequence": "TGCGTCACGTGGGTCT", "relative binding free energy": -0.06}, {"sequence": "GGCGTCACGTGAGGTC", "relative binding free energy": 0.36}, {"sequence": "GGGCGCACGTGGTTGT", "relative binding free energy": -0.18}, {"sequence": "CAGGTCACGTGGTTGA", "relative binding free energy": -0.02}, {"sequence": "TTGCGCACGTGGGTAC", "relative binding free energy": -0.16}, {"sequence": "TAATGCACGTGGGTTT", "relative binding free energy": -0.18}, {"sequence": "ATGAACACGTGGCGGG", "relative binding free energy": -0.06}, {"sequence": "GTCTGCACGTGGGCTT", "relative binding free energy": -0.16}, {"sequence": "GTAAACACGTGCTGGT", "relative binding free energy": 0}, {"sequence": "GATGTCACGTGGCTTA", "relative binding free energy": 0.18}, {"sequence": "GGATACACGTGAAGTG", "relative binding free energy": 0.34}, {"sequence": "TGCAGCACGTGATTGT", "relative binding free energy": -0.13}, {"sequence": "ATTGTCACGTGGGGTC", "relative binding free energy": -0.02}, {"sequence": "TTTTCCACGTGTGATA", "relative binding free energy": 0.16}, {"sequence": "CTGCTCACGTGATGGG", "relative binding free energy": 0.22}, {"sequence": "GGGGTCACGTGCGCTG", "relative binding free energy": -0.1}, {"sequence": "TTAATCACGTGGGGAT", "relative binding free energy": 0.2}, {"sequence": "GGTTACACGTGCTTTT", "relative binding free energy": 0.04}, {"sequence": "GCGGGCACGTGATGGA", "relative binding free energy": -0.11}, {"sequence": "TTGATCACGTGTGTTA", "relative binding free energy": 0.2}, {"sequence": "GGCGACACGTGGTTTG", "relative binding free energy": -0.05}, {"sequence": "GGGAACACGTGGGGTG", "relative binding free energy": -0.04}, {"sequence": "TATGTCACGTGGCTGA", "relative binding free energy": 0.05}, {"sequence": "TTCGACACGTGCTTGG", "relative binding free energy": 0.13}, {"sequence": "TTTTGCACGTGTCTTC", "relative binding free energy": 0.05}, {"sequence": "AGTTACACGTGCGGGT", "relative binding free energy": 0.19}, {"sequence": "AGGAGCACGTGTTTTT", "relative binding free energy": -0.1}, {"sequence": "TGCTTCACGTGGCTGT", "relative binding free energy": 0.17}, {"sequence": "GTTATCACGTGTAAGA", "relative binding free energy": 0.23}, {"sequence": "TTGCACACGTGGGTTC", "relative binding free energy": 0.02}, {"sequence": "AGAGTCACGTGTGACG", "relative binding free energy": 0.22}, {"sequence": "AGTAACACGTGTAGTC", "relative binding free energy": 0.19}, {"sequence": "GGGACCACGTGAAGGG", "relative binding free energy": 0.23}, {"sequence": "ATCGTCACGTGCGGGT", "relative binding free energy": 0.06}, {"sequence": "TTGCGCACGTGCTGGT", "relative binding free energy": -0.27}, {"sequence": "GGCCGCACGTGTGTGA", "relative binding free energy": 0.03}, {"sequence": "TTATGCACGTGAAAGA", "relative binding free energy": 0.42}, {"sequence": "AGCGTCACGTGGGAGG", "relative binding free energy": -0.08}, {"sequence": "TTTCTCACGTGTTGCG", "relative binding free energy": 0.27}, {"sequence": "AGGTACACGTGCGGTG", "relative binding free energy": -0.02}, {"sequence": "TACTTCACGTGCGGGG", "relative binding free energy": 0.16}, {"sequence": "AGGGGCACGTGCGGTC", "relative binding free energy": -0.27}, {"sequence": "TTGTTCACGTGGTCAT", "relative binding free energy": 0}, {"sequence": "TTAGTCACGTGGATTT", "relative binding free energy": 0.07}, {"sequence": "AATATCACGTGGGGTT", "relative binding free energy": -0.02}, {"sequence": "ATTAACACGTGTGCGG", "relative binding free energy": -0.02}, {"sequence": "GGCGGCACGTGGGCCG", "relative binding free energy": -0.24}, {"sequence": "ATTTGCACGTGTTTGT", "relative binding free energy": 0.11}, {"sequence": "AAATGCACGTGGTTAT", "relative binding free energy": 0.09}, {"sequence": "GGTGGCACGTGAAATG", "relative binding free energy": 0.27}, {"sequence": "TGTTGCACGTGTGACA", "relative binding free energy": 0.01}, {"sequence": "GAGGGCACGTGGTATC", "relative binding free energy": -0.12}, {"sequence": "GTATTCACGTGTGTGC", "relative binding free energy": 0.27}, {"sequence": "GGTGGCACGTGCGTAT", "relative binding free energy": -0.15}, {"sequence": "GTAAACACGTGGCGTG", "relative binding free energy": 0.01}, {"sequence": "GGTCTCACGTGCTGGT", "relative binding free energy": 0.17}, {"sequence": "TATTACACGTGGAGGG", "relative binding free energy": 0.07}, {"sequence": "TGATGCACGTGATTTA", "relative binding free energy": 0.09}, {"sequence": "TCAGGCACGTGGAAGT", "relative binding free energy": 0.05}, {"sequence": "GGTGTCACGTGGTTAC", "relative binding free energy": 0}, {"sequence": "TTTGGCACGTGGAGGA", "relative binding free energy": -0.04}, {"sequence": "GGATCCACGTGTGGGG", "relative binding free energy": 0.11}, {"sequence": "CGTGCCACGTGGTGTA", "relative binding free energy": -0.21}, {"sequence": "ATGGCCACGTGAGGCT", "relative binding free energy": 0.15}, {"sequence": "CGTGGCACGTGGGTCG", "relative binding free energy": -0.32}, {"sequence": "TCATGCACGTGGGATG", "relative binding free energy": -0.11}, {"sequence": "TGGGTCACGTGAGTCA", "relative binding free energy": 0.33}, {"sequence": "GGGTACACGTGTATGG", "relative binding free energy": 0.18}, {"sequence": "CAAGGCACGTGTGAGT", "relative binding free energy": -0.05}, {"sequence": "CTGAGCACGTGTGAAG", "relative binding free energy": 0.1}, {"sequence": "TTTTACACGTGTCGCG", "relative binding free energy": 0.07}, {"sequence": "GATGGCACGTGAGGTG", "relative binding free energy": 0.2}, {"sequence": "TTTGTCACGTGTCGGT", "relative binding free energy": 0.09}, {"sequence": "TTGTCCACGTGTAGGT", "relative binding free energy": -0.07}, {"sequence": "ATATACACGTGCAGTG", "relative binding free energy": 0.06}, {"sequence": "GGAGACACGTGGTATG", "relative binding free energy": -0.14}, {"sequence": "ATTTGCACGTGGGTAC", "relative binding free energy": -0.08}, {"sequence": "ATTAGCACGTGTGACG", "relative binding free energy": 0.06}, {"sequence": "AGGAGCACGTGATTGT", "relative binding free energy": 0.12}, {"sequence": "ATTTTCACGTGTAGCG", "relative binding free energy": 0.22}]}]}
